The campaign covered roughly 43,000 compounds. About 200 (0.47%) were called active. Inconclusive results (about 12%) are left out. Calls come from the whole dose curve; as a rule, active = well fitted cell-killing curve with a large enough effect; inconclusive = small, poorly fitted or top-dose-only effect, or effect the other way; inactive = flat fitted curve, though single readings scatter. The list shows a part of the results.
Assay: Cell viability qHTS assay in S16 Pmp22-F2sN cells; note: nearly all actives have a fitted effect of over 65% in size
Conditions: S16 Pmp22-F2sN Schwann cells viability, CellTiter-Glo, 24 h; series mostly up to 57.5 µM; activity change, negative = cytotoxicity: at the top concentration
Method in brief: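 Viability was measured by CellTiter-Glo luminescence (15 min, room temperature). This followed 24 h at 37 °C of compound exposure (23 nL pin transfer) in S16 Pmp22-F2sN Schwann cells, 500-1,000 per well.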
% is set by controls: 0 for no effect and ±100 for the full control effect.

| Compound | activity change, negative = cytotoxicity |
| --- | --- |
| CCOc1ccc(OCC)c(NC(=O)c2nnn(CC(=O)Nc3cc(Cl)ccc3OC)c2N)c1 | inactive: 14.3% |
| COc1ccc(S(=O)(=O)c2c(O)c(C)cc(NC(=O)c3ccccc3)c2C(C)C)cc1 | inactive: 16.9% |
| Cc1cccc(-c2nnc(SCC(=O)N3CCCCC3)o2)c1 | inactive: 2.1% |
| O=C(Nc1ccccc1F)c1oc2ccccc2c1NC(=O)c1c(F)cccc1F | inactive: -1.07% |
| Cc1cccn2c(=O)cc(COc3cccc(NC(=O)c4cccc(Cl)c4)c3)nc12 | inactive: 8.18% |
| CSc1nnc2n(-c3cccc(C)c3)c(=O)c3c4c(sc3n12)CCCC4 | inactive: 13.8% |
| CCOc1ccc(-c2nnc(SCC(=O)Nc3cc(C)ccc3OC)o2)cc1 | inactive: 3.58% |
| CC(C)c1ccc(NC(=O)Cn2c3ncccc3c(=O)n2-c2ccccc2)cc1 | inactive: 9% |
| Cc1c(C(=O)Nc2cccc(-c3nc4ccccc4s3)c2)oc2ccc(F)cc12 | inactive: 7.9% |
| COc1cc(-c2nc(C(N)=O)c3c(n2)n(-c2cccc(C)c2)c(=O)n3C)cc(OC)c1OC | inactive: 2.34% |
| Cc1ccc(CNC(=O)c2nn(C)c3c2CSc2ccc(C)cc2-3)cc1 | inactive: 2.01% |
| N#Cc1cccc(NC(=O)C2CCN(c3nc(-c4ccc(Cl)cc4)no3)CC2)c1 | inactive: -0.831% |
| Cc1ccc(CCNC(=O)CSCc2nc(-c3ccc(C)cc3)oc2C)cc1 | inactive: -27% |
| COC(=O)c1ccccc1NC(=O)c1ccc(=O)n(Cc2cccc(C)c2)c1 | inactive: -9.15% |
| COc1ccc(N2C(N)=C(C#N)C(c3cc(CN4CCOCC4)cs3)C3=C2CCCC3=O)cc1 (centres undefined) | inactive: -3.59% |
| Cc1nc2c(C(=O)NCCc3ccc(Cl)cc3)cnn2c(C)c1Cc1ccc(F)cc1 | inactive: 25.2% |
| CC(C)NC(=O)C1CCN(C(=O)c2cnn(-c3ccccc3)c2-n2cccc2)CC1 | inactive: -0.692% |
| Cc1ccc(NS(=O)(=O)c2ccc3c(c2)C(C(C)C)C(=O)N3)cc1C (centres undefined) | inactive: -24.5% |
| CC(C)c1ccc(OCC(=O)NCC(c2ccc(Cl)cc2)N2CCOCC2)cc1 (centres undefined) | inactive: -15.1% |
| CCOC(=O)C1=C(CN2CCN(C)CC2)NC(=O)NC1c1ccc(F)cc1 (centres undefined) | inactive: 17.4% |
| CCCSc1nc2sc3c(c2c(=O)n1-c1ccc(C)c(Cl)c1)CCN(C(C)=O)C3 | inactive: 27.7% |
| CN(C(=O)c1cc2nc(-c3ccc4c(c3)OCO4)cc(C(F)(F)F)n2n1)c1ccc(OC(F)(F)F)cc1 | inactive: 1.97% |
| Cn1nc(C(=O)NCCc2ccc(Cl)cc2)c2c1-c1ccccc1SC2 | inactive: -4.59% |
| COc1ccccc1N1CCN(C(=O)CSc2nc3ccccc3nc2Cc2ccc(C)cc2)CC1 | inactive: 15.4% |

| Compound | activity change, negative = cytotoxicity |
| --- | --- |
| COc1cc(NS(=O)(=O)c2cc(Br)cc3c2N(C(=O)C2CC2)CC3)cc(OC)c1 | inactive: -18.7% |
| CCS(=O)(=O)c1cccc(C(=O)Nc2ccc(-c3nc4ccccc4s3)c(O)c2)c1 | inactive: 9.24% |
| COc1ccc(-c2csc(-c3c(N)c(C(=O)c4ccccc4)n4ccccc34)n2)cc1OC | inactive: -25.5% |
| Cc1ccc(CN2CCN(C3CCN(S(=O)(=O)N(C)C)CC3)C(=O)C2=O)cc1 | inactive: 15.7% |
| CC1CCN(C(=O)Cn2c(SCC(=O)Nc3ccc(F)cc3)nc3ccccc32)CC1 | inactive: 8.01% |
| COc1ccc(OC)c(CNC(=O)CSc2c3c(nc4cc(Cl)ccc24)CCCC3)c1 | inactive: -28.2% |
| CCN(CCCNC(=O)c1nn(-c2ccc(OC)c(Cl)c2)c(=O)c2c1c1ccccc1n2C)c1ccccc1 | inactive: 9.9% |
| Cc1ccc(CCNC(=O)CN(c2ccc(C(C)C)cc2)S(=O)(=O)c2c(C)nn(C)c2C)cc1 | inactive: -16.6% |
| CCOC(=O)c1c(NC(=O)c2ccc(S(=O)(=O)N(CC)CC)cc2)sc2c1CCCCC2 | inactive: 8.4% |
| Cc1ccc(C(=O)N2CCCCC2CCN2CCCCC2)cc1 (centres undefined) | inactive: 11.4% |
| O=C(NCCC1=CCCCC1)c1ccc2c(c1)N(Cc1ccccc1)C(=O)c1ccccc1S2=O (centres undefined) | inactive: -8.96% |
| CCn1c(SCC(=O)Nc2c(C)cccc2C)nnc1-c1nonc1NC(C)=O | inactive: -4.6% |
| Cc1cccc(C(=O)N(Cc2ccccc2F)C2CCS(=O)(=O)C2)c1 (centres undefined) | inactive: 0.337% |
| COC(=O)c1c(NC(=O)COc2cccc(C(F)(F)F)c2)sc2c1CCCC2 | inactive: 9.11% |
| COc1ccc(Cc2nc3c4cnn(-c5cccc(F)c5)c4ncn3n2)cc1 | inactive: 7.75% |
| COc1cc(C(=O)N2CCN(C(=O)COc3cccc(C)c3)CC2)cc(OC)c1OC | inactive: 8.68% |
| COc1ccc(N2CCN(C(=O)c3cnn(-c4ccc(OC)cc4)c3C3CCN(C(=O)OC(C)(C)C)CC3)CC2)cc1 | inactive: -0.683% |
| CCN(CC)c1ccc(NS(=O)(=O)c2cc(-c3cc(C)no3)ccc2C)c(C)c1 | inactive: -18.7% |
| CCCNC(=O)N1CCCN(S(=O)(=O)c2ccc3c(ccn3CC)c2)CC1 | inactive: 0.0531% |
| CCCCOc1cccc(C(=O)N2CCN(CCc3ccncc3)CC2)c1 | inactive: -2.81% |
| COc1ccc(OC)c(NC(=O)Cn2c(=O)cc(C)c3c(C)nn(-c4cccc(Cl)c4C)c32)c1 | inactive: 5.93% |
| O=C(CN1C(=O)CCSc2ccccc21)Nc1ccc(C(F)(F)F)cc1 | inactive: -0.54% |
| Cc1ccc(CNC(=O)C2CCCN(c3ncnc4onc(-c5ccc(F)cc5)c34)C2)cc1 (centres undefined) | inactive: 6.42% |
| CCCN1Cc2cccc(C(=O)Nc3ccccc3C(=O)OC)c2C1=O | inactive: -19.1% |

| Compound | activity change, negative = cytotoxicity |
| --- | --- |
| CCOc1ccc(NC(=O)CN2CCN(CC(=O)Nc3ccc(F)cc3F)CC2)cc1 | inactive: 0.37% |
| CCOc1ccccc1C(=O)Nc1ccc(S(=O)(=O)N(Cc2ccccc2)c2ccccc2)cc1 | inactive: 14.8% |
| Cc1ccccc1-c1noc(-c2nnn(-c3ccccc3C)c2N)n1 | inactive: -1.51% |
| Cc1ccc(-n2cc(C(=O)OCc3ccc(F)c(F)c3)c3ccccc3c2=O)cc1 | inactive: 0.479% |
| Cc1ccc(-n2ncc(C(=O)NC3CCN(Cc4ccccc4)CC3)c2C2CCN(C(=O)OC(C)(C)C)CC2)cc1C | inactive: -28.4% |
| CCCS(=O)(=O)Nc1cc(-c2cn3ccc(C)cc3n2)ccc1C | inactive: 7.86% |
| COc1ccc(CCCc2nnc(SCC(=O)Nc3ccc(C)cc3)o2)cc1C | inactive: -1.73% |
| Cc1ccc(C)c(CN2C(=O)c3ccccc3S(=O)c3ccc(C(=O)N4CCOCC4)cc32)c1 (centres undefined) | inactive: 9.66% |
| COc1ccc(C(=O)Nc2nc3n(n2)C(c2ccc(Cl)cc2)C=C(c2ccccc2)N3)cc1OC (centres undefined) | inactive: -22.8% |
| Cc1ccc(Nc2sc(C(=O)c3ccc(F)cc3)c(N)c2S(=O)(=O)c2ccc(C)cc2)cc1 | inactive: 5.61% |
| COc1ccccc1N1CCN(S(=O)(=O)c2c(C)sc3ncn(CC(=O)Nc4ccc(C)cc4Br)c(=O)c23)CC1 | inactive: -1.76% |
| CCC(C(=O)NCCc1cc(OC)ccc1OC)n1nc(C)c2c(C)n(-c3ccccc3)nc2c1=O (centres undefined) | inactive: -9.35% |
| CCOc1ccccc1NC(=O)Cn1c(=O)n(Cc2cccs2)c(=O)c2cccnc21 | inactive: 12.7% |
| Fc1ccc(-c2nn(-c3ccc(Cl)cc3)c3c2cnc2ccc(F)cc23)cc1 | inactive: 12.6% |
| COc1ccc(-n2c(=O)c3ccccc3n(Cc3ccccc3Cl)c2=O)cc1 | inactive: 0.399% |
| CC(Sc1nc(=O)cc(N)n1CCc1ccccc1)C(=O)Nc1cccc(Cl)c1 (centres undefined) | inactive: -8.65% |
| CCc1ccc(C(=O)c2cn(CC(=O)Nc3ccc4c(c3)OCO4)c3ccc(F)cc3c2=O)cc1 | inactive: 2% |
| Cn1c(=O)oc2cc(S(=O)(=O)NC(Cc3ccccc3)C(=O)NCc3ccccc3Cl)ccc21 (centres undefined) | inactive: 1.6% |
| COc1ccc(-c2n[nH]c3c2cnc2cc(OC)c(OC)cc23)cc1 | inactive: 2.87% |
| CCN(CC)S(=O)(=O)c1ccc2c(c1)c(=O)c(C(=O)N1CCN(c3cccc(Cl)c3)CC1)cn2C | inactive: -1.56% |
| Cc1ccc(CSC2=Nc3ccccc3C3=NC(CC(=O)NCc4ccc5c(c4)OCO5)C(=O)N23)cc1 (centres undefined) | inactive: -19.6% |
| COc1cc(OC)c(NC(=O)c2ccc3c(c2)N(Cc2ccc(C)cc2)CCS3)cc1Cl | inactive: 2.03% |
| Cc1cccc(C2N=C(N)Nc3nc4ccccc4n32)c1 (centres undefined) | inactive: -19.7% |
| COCCCNC(=O)CCn1c(=O)c2ccccc2n(CC(=O)Nc2cc(Cl)ccc2OC)c1=O | inactive: 9.64% |

| Compound | activity change, negative = cytotoxicity |
| --- | --- |
| O=C(NCCc1ccc(Cl)cc1)c1ccc2c(c1)N(Cc1ccc(Cl)cc1)C(=O)CS2 | inactive: -2.61% |
| Cc1cc(C)c(NC(=O)Cn2nnc(S(=O)(=O)c3ccc(C)c(C)c3)c2N)c(C)c1 | inactive: 2.61% |
| CC(C)c1ccc(NC(=O)N2c3ccccc3Sc3ccccc32)cc1 | inactive: -9.88% |
| CN1C(C(=O)Nc2cccc(O)c2)=CC(c2ccco2)=NS1(=O)=O | inactive: -3.74% |
| Cc1cccc(N2CCn3c2nc2c3c(=O)n(C/C=C/c3ccccc3)c(=O)n2C)c1 | inactive: -0.664% |
| CCCCN(CC)c1nc(-c2ccccc2F)nc2ccccc12 | inactive: 0.534% |
| COc1ccc(S(=O)(=O)N2CCN(c3cccc(C)c3C)CC2)c2ccccc12 | inactive: 4.5% |
| O=S1(=O)c2ccccc2N(Cc2ccc(Cl)cc2)c2ccccc21 | inactive: -8.55% |
| COc1ccc2c(c1)c(=O)c(C(=O)c1ccc(F)cc1)cn2CC(=O)Nc1ccc2c(c1)OCO2 | inactive: 11.9% |
| CCc1nnc(NC(=O)c2nc(SCc3ccccc3F)ncc2Cl)s1 | inactive: 5.73% |
| CCCCOc1ccc(Cn2c(=O)oc3ccc(C)cc32)cc1OC | inactive: -18.3% |
| CC(C)CCNC(=O)Cn1c(-c2cccs2)cc2cc(F)ccc21 | inactive: 0.307% |
| Cc1cc(Br)ccc1NC(=O)c1sc2nc3n(c(=O)c2c1C)CCCC3 | inactive: 3.75% |
| Cc1ccc(NC(=O)C2CCN(c3nnc(C)c4c(C)n(-c5ccccc5)nc34)CC2)c(Cl)c1 | inactive: 10.2% |
| COc1ccc(Cl)cc1C(=O)Nc1nnc2n1CCS2 | inactive: 2.85% |
| Cc1ccc(S(=O)(=O)N(CC(=O)NCCSc2ccc(Cl)cc2)c2ccccc2C)cc1 | inactive: -18.9% |
| O=C(CCCCCn1c(=O)c2sccc2n(Cc2ccc(Cl)cc2)c1=O)NCc1ccc2c(c1)OCO2 | inactive: -16.8% |
| Cc1ccc2oc(-c3ccc(C)c(NC(=O)/C=C/c4ccc(Cl)cc4)c3)nc2c1 | inactive: 1.33% |
| COc1ccc(Nc2c(-c3ccc(C)o3)nc3cc(C)ccn23)cc1 | inactive: -26.3% |
| Cc1cc(C)cc(NC(=O)Cn2cc(C(=O)c3cccs3)c3ccccc32)c1 | inactive: 1.95% |
| CC(=O)N1CCC(N(Cc2ccco2)C(=O)Nc2ccc(C)c(Cl)c2)CC1 | inactive: -4.48% |
| Cc1ccc2[nH]c3c(=O)n(CC(=O)N(CCN(C)C)Cc4ccccc4)ncc3c2c1 | inactive: -17.3% |
